{
  "source": "PubChem BioAssay (NCI)",
  "key": {"[1]": {"experiment": "NCI Yeast Anticancer Drug Screen. Data for the rad50 strain (AID 155);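 also: 0% = growth of vehicle-only cultures of the same strain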", "settings": "S. cerevisiae rad50 strain growth inhibition; at 50.0 µM; stronger effect = higher value"}, "[2]": {"experiment": "NCI Yeast Anticancer Drug Screen. Data for the mec2-1 strain (AID 157)", "settings": "S. cerevisiae mec2-1 strain, at 50.0 µM, stronger effect = higher value"}, "[3]": {"experiment": "NCI Yeast Anticancer Drug Screen. Data for the sgs1 mgt1 strain (AID 161);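 also: 0% = growth of cultures given vehicle only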", "settings": "S. cerevisiae sgs1 mgt1 strain, at 50.0 µM, stronger effect = higher value"}, "[4]": {"experiment": "NCI Yeast Anticancer Drug Screen. Data for the cln2 rad14 strain (AID 165);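 also: 0% = growth equal to vehicle treated cultures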", "settings": "S. cerevisiae cln2 rad14 strain, at 50.0 µM, stronger effect = higher value"}, "[5]": {"experiment": "NCI Yeast Anticancer Drug Screen. Data for the bub3 strain (AID 167)", "settings": "S. cerevisiae bub3 mutant strain, at 50.0 µM, stronger effect = higher value"}, "[6]": {"experiment": "NCI Yeast Anticancer Drug Screen. Data for the mlh1 rad18 strain (AID 175)", "settings": "S. cerevisiae mlh1 rad18 strain growth inhibition; at 50.0 µM; stronger effect = higher value"}},
  "note": "Certain results were filed several times, with different values. They are shown here; other results are not. Rule as the data show it: active = growth inhibition above about 70%; inactive = the rest. The source may hold further records. The records of an entry repeat one measurement (runs, samples, wells, individuals or studies). Additions like (4×) say how often a value occurs here. Some structures have more than one record in an assay (separate samples or runs), and their calls can disagree. Where a SMILES comes first, the peptide text is derived from it. [ ]: non-standard residue; d: D form. ξ: configuration not given here. ξI = CCC(C)C(N)C(=O)O",
  "data": [
    {"molecule": "COc1cccc2c1C(=O)c1c(O)c3c(c(O)c1C2=O)CC(O)(C(C)=O)CC3OC1CC(N)C(O)C(C)O1", "note": "(centres undefined)", "values": [
      {"measurement": "growth inhibition", "setting": "[1]", "result": "inactive: 60.3, -2.25, 3.35, 26.1, -9.4% [separate samples]"},
      {"measurement": "growth inhibition", "setting": "[2]", "result": "inactive: 27.7, 16.4, -14.8, 4.1, -35% [separate samples]"},
      {"measurement": "growth inhibition", "setting": "[3]", "result": "inactive: 35.5, 5.3, -29.1, -14.4, -19.3% [separate samples]"},
      {"measurement": "growth inhibition", "setting": "[4]", "result": "inactive: 39, 8.3, -17.6, -8.35, -19.8% [separate samples]"},
      {"measurement": "growth inhibition", "setting": "[5]", "result": "inactive: 27.6, 2.85, -27.4, -27.9, -25.8% [separate samples]"},
      {"measurement": "growth inhibition", "setting": "[6]", "result": "inactive: 33.2, 0.2, -55.6, -50.2, -40.5% [separate samples]"}
    ]},
    {"molecule": "CCC(C)C(NC(=O)CN)C(=O)O", "note": "(centres undefined) (H-Gly-[ξI]-OH)", "values": [
      {"measurement": "growth inhibition", "setting": "[3]", "result": "inactive: 21.4, 2.35, -5.15, -6.85% [separate samples]"},
      {"measurement": "growth inhibition", "setting": "[4]", "result": "inactive: -69.1, -77.1, -36.7, -47.8% [separate samples]"},
      {"measurement": "growth inhibition", "setting": "[5]", "result": "inactive: -20.2, -14.2, 20.6, -3.1% [separate samples]"}
    ]},
    {"molecule": "OC1C(O)C(O)C(O)C(O)C1O", "note": "(centres undefined)", "values": [
      {"measurement": "growth inhibition", "setting": "[1]", "result": "inactive: -5.9, -0.25, 17.5, 0.85, -13.8% [separate samples]"},
      {"measurement": "growth inhibition", "setting": "[2]", "result": "inactive: 7.05, -26.1, 4.2, -8.95, -16.7% [separate samples]"},
      {"measurement": "growth inhibition", "setting": "[3]", "result": "inactive: -15.2, -26.9, 10.2, -12.5, -14.1% [separate samples]"},
      {"measurement": "growth inhibition", "setting": "[4]", "result": "inactive: -7.15, -26.8, 3.7, -5.75, -24.9% [separate samples]"}
    ]},
    {"molecule": "COc1nc2nc(C(O)C(O)CO)cnc2c(=O)n1C", "note": "(centres undefined)", "values": [
      {"measurement": "growth inhibition", "setting": "[4]", "result": "inactive: 31.4, 5.2, 25.1, 34.5% [separate samples]"},
      {"measurement": "growth inhibition", "setting": "[6]", "result": "inactive: -25.6, -2.45, 0.55, 7.85% [separate samples]"}
    ]},
    {"molecule": "O=C(OC1COC(OC(=O)c2ccccc2)C(OC(=O)c2ccccc2)C1OC(=O)c1ccccc1)c1ccccc1", "note": "(centres undefined)", "values": [
      {"measurement": "growth inhibition", "setting": "[5]", "result": "inactive: -2.65, 18.6, 13.4, 35% [separate samples]"}
    ]},
    {"molecule": "COc1nc(N)c(NC2OCC(O)C(O)C2O)c(=O)n1C", "note": "(centres undefined)", "values": [
      {"measurement": "growth inhibition", "setting": "[2]", "result": "inactive: -67.8, -50, -30.1, -14.6, -26.3% [separate samples]"},
      {"measurement": "growth inhibition", "setting": "[3]", "result": "inactive: -73.8, -69.2, -42.5, -25.9, -35.7% [separate samples]"},
      {"measurement": "growth inhibition", "setting": "[4]", "result": "inactive: -16.2, -2.3, 4.55, -18.7, 25% [separate samples]"},
      {"measurement": "growth inhibition", "setting": "[5]", "result": "inactive: -37.8, -35.2, -13.1 (2×), -8.25% [separate samples]"},
      {"measurement": "growth inhibition", "setting": "[6]", "result": "inactive: -53, -35.4, -31.2, -52.6, -27.1% [separate samples]"}
    ]},
    {"molecule": "COC1OC2COC(c3ccccc3)OC2C2OC12", "note": "(centres undefined)", "values": [
      {"measurement": "growth inhibition", "setting": "[3]", "result": "inactive: 5.05, 1.25, -2.45, -38.5% [separate samples]"}
    ]},
    {"molecule": "CC(C)C(N)C(=O)O", "note": "(centres undefined)", "values": [
      {"measurement": "growth inhibition", "setting": "[1]", "result": "inactive: -6.75, -0.65, -4.65, 0.15, -29.6% [separate samples]"},
      {"measurement": "growth inhibition", "setting": "[2]", "result": "inactive: -5.35, 2.95, -8.8, 14.9, -17.6% [separate samples]"},
      {"measurement": "growth inhibition", "setting": "[3]", "result": "inactive: -8.45, -2.8, 2.35, 19.2, -24.9% [separate samples]"},
      {"measurement": "growth inhibition", "setting": "[4]", "result": "inactive: -21.8, 4.5, 9.95, 10.1, -16.7% [separate samples]"},
      {"measurement": "growth inhibition", "setting": "[5]", "result": "inactive: -26.8, 3.7, -19.4, 16.4, -23.7% [separate samples]"},
      {"measurement": "growth inhibition", "setting": "[6]", "result": "inactive: -43, -3.7, -11.8, 4.65, -13.6% [separate samples]"}
    ]},
    {"molecule": "NCCCC(=O)O", "values": [
      {"measurement": "growth inhibition", "setting": "[2]", "result": "inactive: -6.3, -9.3, -24.6, 1.2% [separate samples]"},
      {"measurement": "growth inhibition", "setting": "[3]", "result": "inactive: 6, -16.2, -49.3, -28.7% [separate samples]"},
      {"measurement": "growth inhibition", "setting": "[6]", "result": "inactive: -23.6, 1.55, -36.4, 3.3% [separate samples]"}
    ]},
    {"molecule": "CC(C)C(N)C(=O)NC(C(=O)NC(C(=O)O)C(C)C)C(C)C", "note": "(centres undefined)", "values": [
      {"measurement": "growth inhibition", "setting": "[4]", "result": "inactive: -10.1 (2×), 26.8, -10.8, -17.6, -12.6% [separate samples]"},
      {"measurement": "growth inhibition", "setting": "[6]", "result": "inactive: -20.9, -10.8, -41.6, -27.9, -8.7, -9.15% [separate samples]"}
    ]},
    {"molecule": "OCC(O)C(O)C(O)C(O)C(/C=N/Nc1ccccc1)=N/Nc1ccccc1", "note": "(centres undefined)", "values": [
      {"measurement": "growth inhibition", "setting": "[1]", "result": "inactive: -5.75%, 41.3%, -3.95% and active: 94.7% [separate samples]"},
      {"measurement": "growth inhibition", "setting": "[2]", "result": "inactive: 6.15%, 39.3%, 15.6% and active: 73.8% [separate samples]"},
      {"measurement": "growth inhibition", "setting": "[3]", "result": "inactive: 30.4, 42.9, 36.2, 2.15% [separate samples]"},
      {"measurement": "growth inhibition", "setting": "[4]", "result": "inactive: -4.2%, -1.55%, -22% and active: 95.1% [separate samples]"},
      {"measurement": "growth inhibition", "setting": "[5]", "result": "inactive: 35.5%, 16.9%, -2.7% and active: 77.7% [separate samples]"},
      {"measurement": "growth inhibition", "setting": "[6]", "result": "inactive: 27.4%, 59.4%, 30.1% and active: 93.8% [separate samples]"}
    ]}
  ]
}
